These are yes or no findings as the source states them, for the method shown. Binding seen in cells or lysates may run through a third protein. Some entries that bind do so weakly or less than the wild type. For some assays here: Tags and fused reporters may be left off the sequences shown.
Experiments:
[1] = target: GST fusion of light chain 1 (LC1) of MAP1B, amino acids 2100-2459 (mouse) (UniProt P14873); assay: pull-down; 40 µg of GST fusion on glutathione-Sepharose beads incubated overnight at 4°C with 1 mg of fetal brain lysate; six washes with lysis buffer B; blot with anti-Tiam1; only the target purified
[2] = target: GST fusion of the C-terminal domain (CTD, actin binding domain) of LC1 of MAP1B, amino acids 2336-2459 (mouse) (UniProt P14873); assay: as above
[3] = target: GST fusion of the N-terminal domain (NTD, microtubule binding domain) of LC1 of MAP1B, amino acids 2100-2336 (mouse) (UniProt P14873); assay: as above
[4] = target: MAP1B full length, C-terminal myc-tag, expressed in N1E115 cells (UniProt P15205); assay: co-IP; anti-c-myc antibody with protein A or G beads on lysates of N1E115 cells (with endogenous MAP1B) transfected with myc-tagged MAP1B constructs and tTA; 4 h at 4°C, washes in lysis buffer A; blot for endogenous Tiam1
[5] = target: MAP1B light chain 1, C-terminal myc-tag, expressed in N1E115 cells (UniProt P15205); assay: as above
[6] = target: GST fusion of light chain 1 (LC1) of MAP1B, amino acids 2100-2459 (mouse) (UniProt P14873); assay: pull-down; 40 µg of GST fusion on glutathione-Sepharose beads incubated overnight at 4°C with 1 mg of lysate of COS7 cells transfected with FLAG-tagged Tiam1 constructs; six washes with lysis buffer B; blot with anti-FLAG; only the target purified
[7] = target: GST fusion of the C-terminal domain (CTD, actin binding domain) of LC1 of MAP1B, amino acids 2336-2459 (mouse) (UniProt P14873); assay: as above
[8] = target: GST fusion of the N-terminal domain (NTD, microtubule binding domain) of LC1 of MAP1B, amino acids 2100-2336 (mouse) (UniProt P14873); assay: as above

Amino acid sequences for entries named in this document (tags omitted). A change or cut given only in a name is not applied to a line headed by its entry. Chains listed by the source or under a name are the forms on record and can include a tag or linker. Residues count along the entry.
GST fusion of light chain 1 (LC1) of MAP1B, amino acids 2100-2459 (P14873, residues 2100-2459): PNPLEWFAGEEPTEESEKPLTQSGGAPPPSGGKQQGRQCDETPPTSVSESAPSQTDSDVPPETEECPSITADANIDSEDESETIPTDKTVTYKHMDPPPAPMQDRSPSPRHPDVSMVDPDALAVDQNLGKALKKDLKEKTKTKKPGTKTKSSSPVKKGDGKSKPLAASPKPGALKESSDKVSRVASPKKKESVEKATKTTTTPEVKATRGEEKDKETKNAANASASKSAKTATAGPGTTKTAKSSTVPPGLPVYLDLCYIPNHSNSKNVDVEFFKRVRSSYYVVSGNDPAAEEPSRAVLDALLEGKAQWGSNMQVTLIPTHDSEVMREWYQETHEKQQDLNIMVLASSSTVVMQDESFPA
GST fusion of the N-terminal domain (NTD, microtubule binding domain) of LC1 of MAP1B, amino acids 2100-2336 (P14873, residues 2100-2336): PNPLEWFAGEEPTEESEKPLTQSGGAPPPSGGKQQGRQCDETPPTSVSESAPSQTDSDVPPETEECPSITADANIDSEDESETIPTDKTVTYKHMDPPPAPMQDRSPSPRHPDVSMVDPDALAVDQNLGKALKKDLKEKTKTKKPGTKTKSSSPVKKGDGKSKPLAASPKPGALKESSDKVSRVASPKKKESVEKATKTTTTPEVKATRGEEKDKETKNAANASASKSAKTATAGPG
GST fusion of the C-terminal domain (CTD, actin binding domain) of LC1 of MAP1B, amino acids 2336-2459 (P14873, residues 2336-2459): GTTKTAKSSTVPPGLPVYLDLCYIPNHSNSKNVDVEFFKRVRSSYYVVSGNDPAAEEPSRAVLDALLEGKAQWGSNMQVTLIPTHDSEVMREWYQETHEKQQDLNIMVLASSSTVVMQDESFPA
UniProt P15205: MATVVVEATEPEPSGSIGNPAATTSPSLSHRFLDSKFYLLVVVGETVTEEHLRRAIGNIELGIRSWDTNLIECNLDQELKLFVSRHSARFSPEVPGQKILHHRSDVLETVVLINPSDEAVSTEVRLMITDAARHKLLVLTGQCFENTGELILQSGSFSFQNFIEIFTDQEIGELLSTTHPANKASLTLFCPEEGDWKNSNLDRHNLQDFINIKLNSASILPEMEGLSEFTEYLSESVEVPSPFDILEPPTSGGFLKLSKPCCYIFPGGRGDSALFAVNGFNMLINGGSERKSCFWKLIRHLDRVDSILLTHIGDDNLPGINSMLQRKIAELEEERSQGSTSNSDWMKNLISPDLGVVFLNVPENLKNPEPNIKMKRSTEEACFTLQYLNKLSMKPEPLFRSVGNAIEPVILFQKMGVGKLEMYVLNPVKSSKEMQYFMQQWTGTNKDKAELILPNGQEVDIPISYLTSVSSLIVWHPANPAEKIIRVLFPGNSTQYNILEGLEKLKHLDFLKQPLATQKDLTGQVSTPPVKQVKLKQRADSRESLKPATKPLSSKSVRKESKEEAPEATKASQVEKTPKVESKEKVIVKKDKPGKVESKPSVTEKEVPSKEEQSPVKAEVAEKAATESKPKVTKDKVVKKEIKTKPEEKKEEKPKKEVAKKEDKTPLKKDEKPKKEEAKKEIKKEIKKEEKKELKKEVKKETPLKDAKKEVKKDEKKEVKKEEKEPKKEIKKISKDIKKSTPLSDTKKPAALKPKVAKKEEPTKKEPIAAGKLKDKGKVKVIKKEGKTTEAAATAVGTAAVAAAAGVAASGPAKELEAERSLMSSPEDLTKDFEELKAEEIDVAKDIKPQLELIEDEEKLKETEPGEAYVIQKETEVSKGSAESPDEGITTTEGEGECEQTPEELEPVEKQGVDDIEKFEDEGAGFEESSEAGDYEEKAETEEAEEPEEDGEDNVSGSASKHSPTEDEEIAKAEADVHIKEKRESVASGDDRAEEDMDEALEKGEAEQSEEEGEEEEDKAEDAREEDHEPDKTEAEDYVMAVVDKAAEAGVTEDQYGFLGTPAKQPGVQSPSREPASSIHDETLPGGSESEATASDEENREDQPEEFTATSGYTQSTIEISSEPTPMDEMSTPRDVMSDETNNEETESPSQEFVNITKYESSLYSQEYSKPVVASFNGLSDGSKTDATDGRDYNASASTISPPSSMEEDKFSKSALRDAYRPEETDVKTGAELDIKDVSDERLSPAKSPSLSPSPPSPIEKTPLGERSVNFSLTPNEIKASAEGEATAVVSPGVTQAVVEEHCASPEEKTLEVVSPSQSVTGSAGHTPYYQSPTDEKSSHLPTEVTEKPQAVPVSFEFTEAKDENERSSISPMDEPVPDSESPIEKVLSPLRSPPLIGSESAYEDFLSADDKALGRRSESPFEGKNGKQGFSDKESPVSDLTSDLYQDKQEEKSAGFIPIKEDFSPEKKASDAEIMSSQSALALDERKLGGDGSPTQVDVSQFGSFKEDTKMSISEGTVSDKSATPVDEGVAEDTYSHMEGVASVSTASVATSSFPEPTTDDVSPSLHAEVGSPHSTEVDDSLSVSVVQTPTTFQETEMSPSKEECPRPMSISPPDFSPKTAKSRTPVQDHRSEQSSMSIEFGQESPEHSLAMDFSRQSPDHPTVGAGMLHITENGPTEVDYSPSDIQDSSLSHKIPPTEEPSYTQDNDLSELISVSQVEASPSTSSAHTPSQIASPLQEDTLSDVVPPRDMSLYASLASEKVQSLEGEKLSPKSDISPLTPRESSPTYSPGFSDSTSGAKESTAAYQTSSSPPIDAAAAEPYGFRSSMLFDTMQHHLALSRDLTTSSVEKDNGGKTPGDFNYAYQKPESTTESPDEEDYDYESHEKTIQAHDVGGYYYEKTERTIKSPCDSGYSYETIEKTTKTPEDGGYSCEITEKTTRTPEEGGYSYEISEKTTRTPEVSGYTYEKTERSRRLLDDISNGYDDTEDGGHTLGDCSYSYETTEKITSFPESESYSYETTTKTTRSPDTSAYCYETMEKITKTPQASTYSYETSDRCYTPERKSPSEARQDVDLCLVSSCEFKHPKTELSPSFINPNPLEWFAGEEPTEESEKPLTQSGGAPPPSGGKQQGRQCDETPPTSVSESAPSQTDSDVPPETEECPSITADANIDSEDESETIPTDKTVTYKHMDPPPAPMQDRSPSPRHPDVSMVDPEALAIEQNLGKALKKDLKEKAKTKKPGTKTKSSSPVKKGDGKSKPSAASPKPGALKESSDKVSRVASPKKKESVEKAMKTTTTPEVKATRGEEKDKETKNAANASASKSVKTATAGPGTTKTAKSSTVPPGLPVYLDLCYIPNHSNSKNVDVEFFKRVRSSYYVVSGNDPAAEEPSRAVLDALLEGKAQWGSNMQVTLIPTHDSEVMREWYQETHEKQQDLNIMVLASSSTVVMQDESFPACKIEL
MAP1B light chain 1, C-terminal myc-tag, expressed in N1E115 cells: residues 2210-2459 of P15205

Molecule: Tiam1, endogenous in fetal brain lysate (from UniProt Q60610 1-1591)
- binding [1]: binds
- binding [2]: binds
- binding [3]: binds

Molecule: Tiam1, endogenous in N1E115 neuroblastoma cells (from UniProt Q60610 1-1591)
- binding [4]: binds
- binding [5]: binds

B1: FLAG-Tiam1 T5, C-terminal pleckstrin domain (C-PH, amino acids 1263-1591) (domain or fragment, UniProt Q60610 1263-1591)
chain: SMGDLLLHTSVIWLNPPASLGKWKKEPELAAFVFKTAVVLVYKDGSKQKKKLVGSHRLSIYEEWDPFRFRHMIPTEALQVRALPSADAEANAVCEIVHVKSESEGRPERVFHLCCSSPESRKDFLKSVHSILRDKHRRQLLKTESLPSAQQYVPFGGKRLCALKGARPAMSRAVSAPSKSLGRRRRRLARNRFTIDSDAISASSPEKEPQQPAGGGDTDRWVEEQFDLAQYEEQDDIKETDILSDDDEFCESLKGASVDRDLQEQLQAASISQRARGRRTLDSHASRMTQLKKQAALSGINGGLESASEEVIWVRREDFAPSRKLNTEI
- binding [6]: binds
- binding [7]: binds
- binding [8]: binds

B2: FLAG-Tiam1 T2, N-terminal pleckstrin domain (N-PH, amino acids 400-740) (domain or fragment, UniProt Q60610 400-740)
chain: SLEEAGSAHSDEQSSGTLSSPGQSDILLTAAQGTVRKAGALAVKNFLVHKKNKKVESATRRKWKHYWVSLKGCTLFFYETDGRSGIDHNSVPKHAVWVENSIVQAVPEHPKKDFVFCLSNSLGDAFLFQTTSQTELENWITAIHSACAAAVARHHHKEDTLRLLKSEIKKLEQKIDMDEKMKKMGEMQLSSVTDSKKKKTILDQIFVWEQNLEQFQMDLFRFRCYLASLQGGELPNPKRLLAFASRPTKVAMGRLGIFSVSSFHALVAARTGEIGVRRRTQAMSRSASKRRSRFSSLWGLDTTSKKKQGRPTINQVFGEGTDAVKRSLEGIFDDTVPDGKR
- binding [6]: binds
- binding [7]: binds
- binding [8]: binds

B3: FLAG-Tiam1 T1, N-terminal domain and PEST motif (amino acids 1-400) (domain or fragment, UniProt Q60610 1-400)
chain: MGNAESQNVDHEFYGEKHASLGRKHTSRSLRLSHKTRRTRHASSGKAIHRNSEVSTRSSSTPSIPQSLAENGLEPFSQEGALDDFGDPIWVDRVDMGLRPVSYTDSSVTPSVDGSIVLTAASVQSMPDSEESRLYGDDATYLAEGGRRQCPYTSNGPTFMETASFKKKRSKSADIWREDSLEFSLSDLSQEHLTSNEEILGSAEEKDCEEARGMETEASPRQLSTCQRANSLGDLYAQKNSGVKANGGPRNRFSSYCRNLVSDIPDLAKHKMPPAAAEETPPYSNYNTLPCRKSHCLSEGATNPQISLSKSMQGRRAKTTQDVNTGEGSEFADSGIEGATTDTDLLSRRSNATNSSYSPPTGRAFVGSDSGSSSTGDRARQGVYENFRRELEMSTTNSES
- binding [6]: no binding

B4: FLAG-Tiam1 T3, Ras binding domain (RBD) and PDZ domain (amino acids 740-1000) (domain or fragment, UniProt Q60610 740-1000)
chain: REKEVVLPSVHQHNPDCDIWVHEYFTPSWFCLPNNQPALTVVRPGDTARDTLELICKTHQLDHSAHYLRLKFLMENRVQFYIPQPEEDIYELLYKEIEICPKVTQNIHIEKSDAAADNYGFLLSSVDEDGIRRLYVNSVKETGLASKKGLKAGDEILEINNRAAGTLNSSMLKDFLSQPSLGLLVRTYPEPEGGVELLENPPHRVDGPVDLGESPLAFLTSNPGHSLSSEQGSSAETAPEEGEGPDLESSDETDHSSKSTE
- binding [6]: no binding

B5: FLAG-Tiam1 T4, Dbl-homology domain (DH, amino acids 1000-1263) (domain or fragment, UniProt Q60610 1000-1263)
chain: EQVAAFCRSLHEMSPSDSSPSPQDATSPQLATTRQLSDADKLRKVICELLETERTYVKDLNCLMERYLKPLQKETFLTQDELDVLFGNLTEMVEFQVEFLKTLEDGVRLVPDLEKLEKVDQFKKVLFSLGGSFLYYADRFKLYSAFCASHTKVPKVLVKAKTDTAFKAFLDAQNPRQQHSSTLESYLIKPIQRVLKYPLLLRELFALTDAESEEHYHLDVAIKTMNKVASHINEMQKIHEEFGAVFDQLIAEQTGEKKEVADLS
- binding [6]: no binding

Reference: paper PMC3531375
